Results on 3 molecules are retold here after paper PMC7679404.

The target of assay [1] is T1, CROWDED NUCLEI 3 (CRWN3), yeast two-hybrid fusion (Arabidopsis thaliana) (UniProt Q9CA42).
T1 sequence: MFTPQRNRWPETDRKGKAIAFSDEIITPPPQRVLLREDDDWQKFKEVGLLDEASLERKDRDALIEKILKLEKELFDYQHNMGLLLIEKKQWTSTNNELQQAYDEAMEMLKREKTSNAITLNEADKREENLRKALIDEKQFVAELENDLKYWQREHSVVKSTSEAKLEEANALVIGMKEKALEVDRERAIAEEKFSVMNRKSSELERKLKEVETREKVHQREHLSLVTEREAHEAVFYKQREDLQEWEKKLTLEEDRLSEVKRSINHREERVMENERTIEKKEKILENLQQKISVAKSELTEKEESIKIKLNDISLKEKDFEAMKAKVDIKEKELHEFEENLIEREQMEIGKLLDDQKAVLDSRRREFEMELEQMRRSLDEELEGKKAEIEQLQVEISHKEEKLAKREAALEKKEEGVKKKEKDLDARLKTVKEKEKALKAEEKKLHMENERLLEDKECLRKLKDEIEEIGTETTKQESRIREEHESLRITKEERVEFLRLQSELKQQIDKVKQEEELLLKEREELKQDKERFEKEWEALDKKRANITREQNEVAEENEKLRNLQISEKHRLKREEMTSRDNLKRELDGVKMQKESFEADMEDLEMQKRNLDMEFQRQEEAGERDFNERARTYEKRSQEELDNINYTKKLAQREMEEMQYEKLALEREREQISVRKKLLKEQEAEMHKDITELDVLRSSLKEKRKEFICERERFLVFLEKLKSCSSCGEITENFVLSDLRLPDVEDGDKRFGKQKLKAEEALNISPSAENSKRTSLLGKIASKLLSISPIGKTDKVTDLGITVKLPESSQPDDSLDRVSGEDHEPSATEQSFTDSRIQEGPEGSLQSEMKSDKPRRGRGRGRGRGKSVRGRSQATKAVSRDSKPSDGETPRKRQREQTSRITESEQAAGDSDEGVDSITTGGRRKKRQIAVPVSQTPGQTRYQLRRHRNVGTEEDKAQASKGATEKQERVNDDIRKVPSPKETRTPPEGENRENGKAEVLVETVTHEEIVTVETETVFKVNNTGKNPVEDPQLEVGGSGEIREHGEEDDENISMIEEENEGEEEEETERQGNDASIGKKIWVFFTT
Description: two-hybrid; CRWN1-4 in pGADT7 (prey) and pGBKT7 (bait), Y2HGold yeast; growth on SD/-Leu/-Trp/-His.

The target of assay [2] is T2, CROWDED NUCLEI 3 (CRWN3), fluorescent protein-conjugated (co-immunoprecipitation) (Arabidopsis thaliana) (UniProt Q9CA42).
T2 sequence: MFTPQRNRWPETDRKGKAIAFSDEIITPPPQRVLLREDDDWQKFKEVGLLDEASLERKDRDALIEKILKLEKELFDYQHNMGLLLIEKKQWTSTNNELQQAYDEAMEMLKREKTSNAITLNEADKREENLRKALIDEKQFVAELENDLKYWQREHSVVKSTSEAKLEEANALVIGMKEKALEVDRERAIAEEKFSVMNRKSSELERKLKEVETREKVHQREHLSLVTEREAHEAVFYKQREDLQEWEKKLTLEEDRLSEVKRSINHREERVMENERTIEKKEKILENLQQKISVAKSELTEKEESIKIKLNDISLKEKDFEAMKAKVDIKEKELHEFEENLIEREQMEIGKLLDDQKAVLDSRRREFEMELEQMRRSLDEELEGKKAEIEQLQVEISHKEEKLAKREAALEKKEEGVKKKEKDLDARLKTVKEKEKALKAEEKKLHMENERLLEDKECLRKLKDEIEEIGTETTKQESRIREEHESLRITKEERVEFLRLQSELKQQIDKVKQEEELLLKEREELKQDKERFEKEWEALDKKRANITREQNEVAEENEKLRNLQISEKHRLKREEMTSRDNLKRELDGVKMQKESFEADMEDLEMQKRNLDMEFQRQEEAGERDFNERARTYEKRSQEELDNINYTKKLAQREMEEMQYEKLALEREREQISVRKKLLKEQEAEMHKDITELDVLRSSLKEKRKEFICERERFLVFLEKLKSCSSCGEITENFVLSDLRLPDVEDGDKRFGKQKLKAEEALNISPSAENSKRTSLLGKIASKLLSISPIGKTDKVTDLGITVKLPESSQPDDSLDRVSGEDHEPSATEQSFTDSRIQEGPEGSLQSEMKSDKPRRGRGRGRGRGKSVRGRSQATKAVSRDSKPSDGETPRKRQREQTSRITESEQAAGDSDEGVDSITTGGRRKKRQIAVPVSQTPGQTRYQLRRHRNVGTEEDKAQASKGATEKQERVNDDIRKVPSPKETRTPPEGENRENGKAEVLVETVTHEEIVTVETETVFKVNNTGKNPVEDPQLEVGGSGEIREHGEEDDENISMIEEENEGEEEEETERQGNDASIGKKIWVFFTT
Description: co-IP; GFP- and tagRFP-conjugated CRWNs transiently expressed in Nicotiana benthamiana leaves; soluble lysate in µMACS lysis buffer; anti-GFP magnetic beads (µMACS GFP Isolation Kit), 4 °C, 30 min; western blot with anti-GFP and anti-tagRFP.

The target of assay [3] is T3, CROWDED NUCLEI 2 (CRWN2), fluorescent protein-conjugated (co-immunoprecipitation) (Arabidopsis thaliana) (UniProt Q9SAF6).
T3 sequence: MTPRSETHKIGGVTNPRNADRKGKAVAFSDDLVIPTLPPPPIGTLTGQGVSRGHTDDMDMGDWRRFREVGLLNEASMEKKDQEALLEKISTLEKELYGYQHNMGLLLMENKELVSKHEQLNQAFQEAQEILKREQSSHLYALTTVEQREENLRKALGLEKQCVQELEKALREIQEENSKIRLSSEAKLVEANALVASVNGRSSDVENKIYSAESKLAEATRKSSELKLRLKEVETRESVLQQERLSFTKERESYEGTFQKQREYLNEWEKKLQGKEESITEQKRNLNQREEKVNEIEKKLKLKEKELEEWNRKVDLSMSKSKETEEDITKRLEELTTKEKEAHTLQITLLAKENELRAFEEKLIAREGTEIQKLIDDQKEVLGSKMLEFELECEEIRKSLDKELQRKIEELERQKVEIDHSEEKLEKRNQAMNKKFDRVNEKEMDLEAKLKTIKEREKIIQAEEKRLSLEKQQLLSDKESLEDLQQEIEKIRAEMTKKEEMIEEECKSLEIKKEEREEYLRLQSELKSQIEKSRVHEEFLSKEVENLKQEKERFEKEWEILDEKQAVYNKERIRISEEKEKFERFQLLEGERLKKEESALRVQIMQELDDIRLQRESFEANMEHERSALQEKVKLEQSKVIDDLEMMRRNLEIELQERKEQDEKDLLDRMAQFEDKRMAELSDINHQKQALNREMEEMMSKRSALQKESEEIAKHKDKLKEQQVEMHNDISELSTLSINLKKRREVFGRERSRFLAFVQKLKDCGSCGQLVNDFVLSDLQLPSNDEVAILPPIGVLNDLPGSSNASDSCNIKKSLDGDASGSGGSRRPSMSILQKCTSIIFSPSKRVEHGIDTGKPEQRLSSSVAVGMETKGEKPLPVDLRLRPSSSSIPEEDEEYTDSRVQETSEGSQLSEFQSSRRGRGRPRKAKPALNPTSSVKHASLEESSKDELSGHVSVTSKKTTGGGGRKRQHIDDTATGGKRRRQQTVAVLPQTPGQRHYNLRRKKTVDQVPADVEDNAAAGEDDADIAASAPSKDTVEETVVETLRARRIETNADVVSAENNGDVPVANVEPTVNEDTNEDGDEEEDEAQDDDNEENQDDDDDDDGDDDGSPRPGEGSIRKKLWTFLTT
Described as above.

These are yes or no findings as the source states them, for the method shown. For some of these results: Binding seen in cells or lysates may run through a third protein. Some results given as binding are weak or reduced against the parent protein; the word gives no strength. For some of these results: Sequences can lack the tags named with a protein.

B1: CROWDED NUCLEI 2 (CRWN2), yeast two-hybrid fusion (protein, UniProt Q9SAF6 1-1128)
chain: MTPRSETHKIGGVTNPRNADRKGKAVAFSDDLVIPTLPPPPIGTLTGQGVSRGHTDDMDMGDWRRFREVGLLNEASMEKKDQEALLEKISTLEKELYGYQHNMGLLLMENKELVSKHEQLNQAFQEAQEILKREQSSHLYALTTVEQREENLRKALGLEKQCVQELEKALREIQEENSKIRLSSEAKLVEANALVASVNGRSSDVENKIYSAESKLAEATRKSSELKLRLKEVETRESVLQQERLSFTKERESYEGTFQKQREYLNEWEKKLQGKEESITEQKRNLNQREEKVNEIEKKLKLKEKELEEWNRKVDLSMSKSKETEEDITKRLEELTTKEKEAHTLQITLLAKENELRAFEEKLIAREGTEIQKLIDDQKEVLGSKMLEFELECEEIRKSLDKELQRKIEELERQKVEIDHSEEKLEKRNQAMNKKFDRVNEKEMDLEAKLKTIKEREKIIQAEEKRLSLEKQQLLSDKESLEDLQQEIEKIRAEMTKKEEMIEEECKSLEIKKEEREEYLRLQSELKSQIEKSRVHEEFLSKEVENLKQEKERFEKEWEILDEKQAVYNKERIRISEEKEKFERFQLLEGERLKKEESALRVQIMQELDDIRLQRESFEANMEHERSALQEKVKLEQSKVIDDLEMMRRNLEIELQERKEQDEKDLLDRMAQFEDKRMAELSDINHQKQALNREMEEMMSKRSALQKESEEIAKHKDKLKEQQVEMHNDISELSTLSINLKKRREVFGRERSRFLAFVQKLKDCGSCGQLVNDFVLSDLQLPSNDEVAILPPIGVLNDLPGSSNASDSCNIKKSLDGDASGSGGSRRPSMSILQKCTSIIFSPSKRVEHGIDTGKPEQRLSSSVAVGMETKGEKPLPVDLRLRPSSSSIPEEDEEYTDSRVQETSEGSQLSEFQSSRRGRGRPRKAKPALNPTSSVKHASLEESSKDELSGHVSVTSKKTTGGGGRKRQHIDDTATGGKRRRQQTVAVLPQTPGQRHYNLRRKKTVDQVPADVEDNAAAGEDDADIAASAPSKDTVEETVVETLRARRIETNADVVSAENNGDVPVANVEPTVNEDTNEDGDEEEDEAQDDDNEENQDDDDDDDGDDDGSPRPGEGSIRKKLWTFLTT
Consider B1, for which the binding result in assay [1] is on record as “binds”.

B2: CROWDED NUCLEI 2 (CRWN2), fluorescent protein-conjugated (co-immunoprecipitation) (protein, UniProt Q9SAF6 1-1128)
chain: MTPRSETHKIGGVTNPRNADRKGKAVAFSDDLVIPTLPPPPIGTLTGQGVSRGHTDDMDMGDWRRFREVGLLNEASMEKKDQEALLEKISTLEKELYGYQHNMGLLLMENKELVSKHEQLNQAFQEAQEILKREQSSHLYALTTVEQREENLRKALGLEKQCVQELEKALREIQEENSKIRLSSEAKLVEANALVASVNGRSSDVENKIYSAESKLAEATRKSSELKLRLKEVETRESVLQQERLSFTKERESYEGTFQKQREYLNEWEKKLQGKEESITEQKRNLNQREEKVNEIEKKLKLKEKELEEWNRKVDLSMSKSKETEEDITKRLEELTTKEKEAHTLQITLLAKENELRAFEEKLIAREGTEIQKLIDDQKEVLGSKMLEFELECEEIRKSLDKELQRKIEELERQKVEIDHSEEKLEKRNQAMNKKFDRVNEKEMDLEAKLKTIKEREKIIQAEEKRLSLEKQQLLSDKESLEDLQQEIEKIRAEMTKKEEMIEEECKSLEIKKEEREEYLRLQSELKSQIEKSRVHEEFLSKEVENLKQEKERFEKEWEILDEKQAVYNKERIRISEEKEKFERFQLLEGERLKKEESALRVQIMQELDDIRLQRESFEANMEHERSALQEKVKLEQSKVIDDLEMMRRNLEIELQERKEQDEKDLLDRMAQFEDKRMAELSDINHQKQALNREMEEMMSKRSALQKESEEIAKHKDKLKEQQVEMHNDISELSTLSINLKKRREVFGRERSRFLAFVQKLKDCGSCGQLVNDFVLSDLQLPSNDEVAILPPIGVLNDLPGSSNASDSCNIKKSLDGDASGSGGSRRPSMSILQKCTSIIFSPSKRVEHGIDTGKPEQRLSSSVAVGMETKGEKPLPVDLRLRPSSSSIPEEDEEYTDSRVQETSEGSQLSEFQSSRRGRGRPRKAKPALNPTSSVKHASLEESSKDELSGHVSVTSKKTTGGGGRKRQHIDDTATGGKRRRQQTVAVLPQTPGQRHYNLRRKKTVDQVPADVEDNAAAGEDDADIAASAPSKDTVEETVVETLRARRIETNADVVSAENNGDVPVANVEPTVNEDTNEDGDEEEDEAQDDDNEENQDDDDDDDGDDDGSPRPGEGSIRKKLWTFLTT
Turning to B2, the binding result in assay [2] is reported as “binds”.

B3: CROWDED NUCLEI 4 (CRWN4), fluorescent protein-conjugated (co-immunoprecipitation) (protein, UniProt Q9FLH0 1-1010)
chain: MATSSRSERFPITPSTAATNRLTITPNSRVLKSPLTEEIMWKRLKDAGFDEQSIKNRDKAALIAYIAKLESEVYDYQHNMGLLLLEKNELSSQYEEIKASVDESDLTHMREKSAYVSALAEAKKREESLKKDVGIAKECISSLEKTLHEMRAECAETKVSAGSTMSEAHVMIEDALKKLADAEAKMRAAEALQAEANRYHRIAERKLKEVESREDDLTRRLASFKSECETKENEMVIERQTLNERRKSLQQEHERLLDAQVSLNQREDHIFARSQELAELEKGLDTAKTTFEEERKAFEDKKSNLEIALALCAKREEAVSERESSLLKKEQELLVAEEKIASKESELIQNVLANQEVILRKRKSDVEAELECKSKSVEVEIESKRRAWELREVDIKQREDLVGEKEHDLEVQSRALAEKEKDITEKSFNLDEKEKNLVATEEDINRKTTMLEDEKERLRKLDLELQQSLTSLEDKRKRVDSATQKLEALKSETSELSTLEMKLKEELDDLRAQKLEMLAEADRLKVEKAKFEAEWEHIDVKREELRKEAEYITRQREAFSMYLKDERDNIKEERDALRNQHKNDVESLNREREEFMNKMVEEHSEWLSKIQRERADFLLGIEMQKRELEYCIENKREELENSSRDREKAFEQEKKLEEERIQSLKEMAEKELEHVQVELKRLDAERLEIKLDRERREREWAELKDSVEELKVQREKLETQRHMLRAERDEIRHEIEELKKLENLKVALDDMSMAKMQLSNLERSWEKVSALKQKVVSRDDELDLQNGVSTVSNSEDGYNSSMERQNGLTPSSATPFSWIKRCTNLIFKTSPEKSTLMHHYEEEGGVPSEKLKLESSRREEKAYTEGLSIAVERLEAGRKRRGNTSGDETSEPSNNKKRKHDVTQKYSDEADTQSVISSPQNVPEDKHELPSSQTQTPSGMVVISETVKITRVTCETEVTNKVTTLDCSESPSEAGRKMGEETEDGDCNQTGINASETVIHNEAATEDICT
Take B3: the binding entry in assay [3] and in assay [2] was “no binding” in each case.
